Measured values from PubChem BioAssay AID686979 (National Center for Advancing Translational Sciences (NCATS), 2013).
Out of some 420,000 compounds screened, about 50,000 (12%) were called active. The shares of active, inactive and inconclusive entries below differ from those in the screen. The call rests on the fitted dose curve; in most records, active means well fitted inhibition curve with a large enough effect; inconclusive means small, poorly fitted or top-dose-only effect; inactive means flat fitted curve, though single readings scatter. Potencies of inconclusive entries are left out as doubtful fits.

assay: qHTS for Inhibitors of human tyrosyl-DNA phosphodiesterase 1 (TDP1): qHTS in cells in presence of CPT; conditions: chicken DT40 Tdp1-/-;hTDP1 cells + 20 nM CPT, ATP luminescence, 48 h; series mostly up to 46.2 µM; further: nearly all actives have a fitted effect of over 55% in size
Method in brief: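 Chicken DT40 Tdp1-/- cells complemented with human TDP1, 400 cells/well, exposed to compounds plus 20 nM camptothecin for at least 48 h at 37 C; viability read as ATP content by CellTiter-Glo luminescence.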
Potency means the concentration at half of the fitted maximal effect; tags describe the fitted curve by direction and shape.

SMILES | Potency
Cc1ccccc1Nc1nc2ccccc2s1 | inconclusive [inhibitor, single point]
CCOc1ccc2[nH]cc(S(=O)(=O)c3ccc(C)cc3)c(=O)c2c1 | inconclusive [inhibitor, partial curve, poor fit]
CC(C)c1ccccc1NC1=CC(=O)CC(C)(C)C1 | inactive
O=C(C[C@@H]1C/C=C\C[C@H](Cc2ccc(F)cc2)C(=O)OC[C@@H](Cc2c[nH]c3ccccc23)NC1=O)NCCO | inconclusive [inhibitor, single point]
CCOc1cccc(=O)c2c(C)n(CC(=O)c3ccccc3)c(C)c12 | inconclusive [inhibitor, single point]
COc1cccc(NC(=S)N2CCn3cccc3C2c2cccnc2)c1 (stereo not given) | inactive
COc1cc2c(cc1OC)C(c1cccc(C)c1)CC(=O)N2 (stereo not given) | inactive
O=C(Cn1cccc1C(=O)c1ccccc1)NCc1cccc(Cl)c1 | inconclusive [inhibitor, single point]
COc1ccc(CNC(=S)N/N=C(\C)c2ccc(OC)cc2)cc1 | active: 11.6 µM
CCc1ccc(S(=O)(=O)Nc2cccc(-c3ccc4nncn4n3)c2)s1 | inconclusive [inhibitor, single point]
CCc1cc[n+](C2=C([O-])c3ccccc3C(=O)/C2=N\S(=O)(=O)c2cccs2)cc1 | active: 2.31 µM
CON(C)c1nc(C2CCCCC2)c2cc(C)ccc2n1 | inconclusive [inhibitor, single point]
O=C1CCCC2=C1C1(CCCCC1)N=C(Nc1nc3ccccc3o1)N2 | inconclusive [inhibitor, partial curve, poor fit]
CC1=C(C(=O)OC2CCCC2)C(c2ccc(Cl)cc2)CC(=O)N1 (stereo not given) | inconclusive [inhibitor, single point]
O=C1CCCc2c1cc(-c1ccccc1)n2-c1ccccc1 | inactive
O=C1N(c2ccccc2)C(c2ccc(Cl)cc2)N2CCCN12 (stereo not given) | inactive
Cc1ccc(S(=O)(=O)NC(=O)C2(C)CCN2C(=O)c2ccccc2CCc2ccccc2)nc1 (stereo not given) | inactive
CCOC(=O)C1=CCN(S(=O)(=O)c2ccc(Cl)cc2)C1c1ccc(C)cc1 (stereo not given) | inconclusive [inhibitor, single point]
Cc1ccc2[nH]c(=O)c(CN(Cc3cccs3)C(=S)NCC3CCCO3)cc2c1 (stereo not given) | inconclusive [inhibitor, single point]
O=C(NNS(=O)(=O)c1ccccc1C(F)(F)F)c1cc2ncc(C(F)(F)F)cc2s1 | inconclusive [inhibitor, single point]
CCCCN(Cc1ccco1)C(=O)C1CCCN(c2ncnc3c2nc2n3CCCCC2)C1 (stereo not given) | active: 16.4 µM
c1ccc2c(c1)CC1(CCCC1)N=C2N1CCOCC1 | inactive
COC(=O)C1=CO[C@@H](O[C@@H]2O[C@H](CO)[C@@H](O)[C@H](O)[C@H]2O)[C@H]2[C@@H]1C(=O)C[C@@H]2C | inactive
Cc1cc(C)c(S(=O)(=O)Nc2cccc(S(=O)(=O)NC3=NCCC3)c2)c(C)c1 | inactive

SMILES | Potency
COc1cccc(/C=N/Nc2nnc(C)n2N)c1OCc1ccccc1Cl | inconclusive [inhibitor, single point]
COc1ccc(-c2nc(SCCOc3cc(C)ccc3C(C)C)n3[nH]c(=O)cc3n2)cc1 | inconclusive [inhibitor, partial curve]
C/C(=N\Nc1nc(C)cc(-c2ccccc2)n1)c1ccc(F)cc1 | inconclusive [inhibitor, single point]
CCn1nc([N+](=O)[O-])c(C(C#N)c2nc3ccccc3n2C)c(Cl)c1=O (stereo not given) | inconclusive [inhibitor, single point]
CN(C(=O)COC(=O)/C=C/c1ccc2c(c1)OCO2)c1c(N)n(Cc2ccccc2)c(=O)[nH]c1=O | inconclusive [inhibitor, single point]
COc1ccc(-c2sc3cc(OC)ccc3c2-c2ccc(OCCN3CCOCC3)cc2)cc1 | inconclusive [inhibitor, single point]
CCOC(=O)Cc1c(C)nc2c(C#N)c(C)nn2c1C | inconclusive [inhibitor, single point]
CCN(CCCCOC(=O)c1ccc(OC)c(OC)c1)C(C)Cc1ccc(OC)cc1 (stereo not given) | inconclusive [inhibitor, partial curve]
Cc1ccc(CNCc2cc(Cl)ccc2O)cc1 | inconclusive [inhibitor, partial curve, poor fit]
O=c1cc(CO)oc2ccccc12 | inconclusive [inhibitor, full curve, poor fit]
S=C(NCC1CCCO1)Nc1ccc(Cl)c(Cl)c1 (stereo not given) | inconclusive [inhibitor, single point]
O=C(NCCCN1CCOCC1)c1ccc2c(c1)N(Cc1cccc(Cl)c1)C(=O)CS2 | inconclusive [inhibitor, single point]
Cc1ccc(C(=O)NCCSc2ccc(Cl)cc2)cc1S(=O)(=O)Nc1ccccc1 | inconclusive [inhibitor, single point]
Cc1cccc(Cn2cnc3c(N)c(C)c(C)cc32)c1 | inactive
CCCc1cc(=O)oc2cc(OCC(=O)NCCCN3CCOCC3)ccc12 | inactive
CC(C)(C)CC(C)(C)N=C1Nc2ccc([N+](=O)[O-])cc2N[C@]12C[C@H]1CCCC(=O)N3CC[C@@H](C2)[C@@H]13 | active: 17.8 µM
CCOC(CNC(=O)Cc1c(C)nc2c(-c3ccccc3)c(C)nn2c1C)OCC | inactive
CCn1cc2nc(SCc3ccccc3)n(Cc3ccc(C)cc3)c(=O)c2n1 | active: 16.4 µM
CC(=O)OC(/C(O)=C(\C#N)c1nc2ccccc2[nH]1)c1ccccc1 (stereo not given) | inconclusive [inhibitor, single point]
CC(=O)Nc1ccc(Nc2ccc(S(=O)(=O)C(F)(F)F)cc2[N+](=O)[O-])cc1 | inconclusive [inhibitor, partial curve]
Cc1ccc(C(=O)Nc2nc(-c3ccc4c(c3)OCCO4)cs2)o1 | inconclusive [inhibitor, single point]
S=C(NCc1ccco1)Nc1ccc(N2CCOCC2)cc1 | inactive
CSc1ncc(C(=O)Nc2cccc(Cl)c2)c(C)n1 | inactive
Cc1[nH]c2ccccc2c1/C=N/NC(=S)NC(C)C | inconclusive [inhibitor, single point]

SMILES | Potency
COc1ccc(NS(=O)(=O)c2cc3c(cc2C)N(C)CCO3)cc1 | inconclusive [inhibitor, single point]
CN(C)c1ccc(CNS(=O)(=O)c2csc(C(N)=O)c2)cc1 | active: 23.1 µM
CC[C@]1(O)C[C@@H]2CN(CCc3c([nH]c4ccccc34)[C@@](C(=O)OC)(c3cc4c(cc3OC)N(C)C3[C@]45CCN4CC=C[C@](CC)(C45)[C@@H](OC(C)=O)[C@]3(O)C(=O)OC)C2)C1 (stereo not given in full) | active: 0.0252 µM
CCOC(=O)Cn1nnnc1CN(Cc1cccs1)Cc1cc2cc(C)cc(C)c2[nH]c1=O | active: 20.6 µM
Cc1ccccc1-c1ccc2c(c1)O[C@@H](CN(C)C(=O)Nc1ccc(C(F)(F)F)cc1)[C@H](C)CN([C@@H](C)CO)S2(=O)=O | active: 20.6 µM
CCCCC[C@@H](C)N1C[C@@H](COCc2ccccc2)Oc2cc(N3CC[C@@H](N(C)C)C3)ccc2S1(=O)=O | active: 20.6 µM
CCOC(=O)c1c(CN2CCCCC2C)oc2ccc(OC)cc12 (stereo not given) | active: 20.6 µM
CC(=NNC(N)=S)c1ccc2cc3c(cc2c1)OCO3 | active: 23.1 µM
CC(C)CC(=O)CN1C(=O)C2(OCCO2)c2ccccc21 | inactive
CCCCC(=O)Nc1ccc(C(=O)NCCc2ccccc2)cc1 | inactive
CN(CC(=O)Nc1cccc(F)c1)C(=O)Cn1cnc2c1c(=O)n(C)c(=O)n2C | inactive
CCCCn1c(N)c(N(CC)C(=O)c2ccco2)c(=O)[nH]c1=O | inactive
COc1cccc(NC(=O)NC2CCN(CC(=O)Nc3ccccc3[N+](=O)[O-])CC2)c1 | inconclusive [inhibitor, single point]
COc1ccc(CCNC(=O)CSc2nc(C)cc(C)n2)cc1OC | inactive
C=CCS/C(N)=N\N=C\c1c(O)ccc2ccccc12 | inconclusive [inhibitor, single point]
Cc1noc(C)c1NC(=O)Nc1cccc2c1O[C@@H](CN(C)C(=O)Nc1ccc3c(c1)OCO3)[C@@H](C)CN([C@H](C)CO)C2=O | inconclusive [inhibitor, partial curve]
Cc1ccccc1NC(=O)CSc1nc2ccc(NC(=O)c3ccco3)cc2s1 | active: 16.4 µM
FC(F)(F)c1cc(CCN2C(=S)NC[C@@H]2c2ccccc2)cc(C(F)(F)F)c1 | inconclusive [inhibitor, partial curve]
COc1ccc(C)cc1NC(=O)c1cc(S(=O)(=O)NCCC2=CCCCC2)ccc1F | active: 20.6 µM
CCOc1cccc(C(=O)Nc2ccccc2N2CCN(C(=O)C(C)C)CC2)c1 | inconclusive [inhibitor, partial curve]
CC(=O)Nc1ccc(NC(=O)c2ccc(NC(=O)c3ccccc3)cc2)cc1 | inactive
Cc1ccc(-c2csc3nc(CN(C)Cc4ccccc4)[nH]c(=O)c23)cc1 | inconclusive [inhibitor, single point]
